From the supplement of paper PMC10326071
Where “and” joins values, the source holds several entries; their conditions need not be identical. Identical values can stand only once. This is one part of the list. Repeats are few or missing, and single values can be far off.

Experiments:
[1] = tested on: SARS-CoV-2 nsp3 SARS-unique domain core (SUD-core, nsp3 residues 413-676); assay: dissociation rate constant koff (BLI); higher = faster dissociation; conditions: 100 µM; 25 °C
[2] = tested on: SARS-CoV-2 nsp3 SARS-unique domain core (SUD-core, nsp3 residues 413-676); assay: apparent dissociation constant Kd (single-concentration BLI fit); higher = weaker binding; conditions: 100 µM; 25 °C

SMILES	dissociation rate constant koff [1]	apparent dissociation constant Kd [2]
Cc1ccc(NC(=O)N2CCN(c3nc(N)nc4sc(-c5cccnc5)nc34)CC2)cc1	0.0779 s⁻¹	110 µM
O=S(=O)(NCCNC/C=C/c1ccc(Br)cc1)c1cccc2cnccc12	14 s⁻¹	293 µM
CCOC(=O)c1cnc2ccc(-c3cncc(NS(=O)(=O)c4ccccc4)c3)cn12	0.917 s⁻¹	1780 µM
NC(=O)c1cnc(N[C@@H]2CCCC[C@@H]2N)nc1Nc1cccc(-n2nccn2)c1	0.561 s⁻¹	1300 µM
COc1c(Nc2ncc(Cl)c(N[C@H]3[C@@H](C(N)=O)[C@@H]4C=C[C@H]3C4)n2)ccc2c1CC[C@@H](N1CCOCC1)CC2	0.0466 s⁻¹	125 µM
Nc1nc2c(ncn2[C@@H]2O[C@H](CO)[C@@H](O)[C@H]2O)c(=O)[nH]1	0.0369 s⁻¹	803 µM
O=C(NCCCNC(=O)Nc1cccc(C2=NCCN2)c1)Nc1cccc(C2=NCCN2)c1	1.07 s⁻¹	1450 µM
O=c1cc(-c2ccc(O)cc2)oc2cc(O)c([C@@H]3O[C@H](CO)[C@@H](O)[C@H](O)[C@H]3O)c(O)c12	0.0598 s⁻¹	662 µM
N#CC(=C(/N)Sc1ccccc1N)/C(C#N)=C(\N)Sc1ccccc1N	0.776 s⁻¹	169 µM
C=CS(=O)(=O)c1ccc(Nc2nc(OCC3CCCCC3)c3[nH]cnc3n2)cc1	1.66 s⁻¹	799 µM
Cc1cn([C@H]2C[C@H](O)[C@@H](CO)O2)c(=O)[nH]c1=O	0.0131 s⁻¹	88.7 µM
Cn1c(=N)ccn([C@@H]2O[C@H](CO)[C@@H](O)[C@H]2O)c1=O	0.0167 s⁻¹	111 µM
c1cc(-c2cnn3cc(-c4ccc(OCCN5CCCCC5)cc4)cnc23)ccn1	0.0156 s⁻¹	8.94 µM
CCOc1cc(N2CCC(O)CC2)ccc1Nc1ncc2c(n1)N(C1CCCC1)CCC(=O)N2C	0.631 s⁻¹	1800 µM
NC(=O)c1nc(-c2c(F)cccc2Cl)oc1Nc1ccc(C(=O)N2CCOCC2)cc1	0.102 s⁻¹	9620 µM
C[C@H](CC[C@@H](O)C(C)(C)O)[C@H]1CC[C@@]2(C)[C@@H]3CC=C4[C@@H](CC[C@H](O)C4(C)C)[C@]3(C)[C@H](O)C[C@]12C	1.11 s⁻¹	1800 µM
Cc1ccc(NC(=O)Nc2nnc(Sc3ncnc4cc(OCCCN5CCOCC5)ccc34)s2)cc1	0.00868 s⁻¹	45.4 µM
COc1cc(Nc2ncc3c(n2)-c2ccc(Cl)cc2C(c2c(F)cccc2OC)=NC3)ccc1C(=O)O	0.225 s⁻¹	508 µM

SMILES	dissociation rate constant koff [1]	apparent dissociation constant Kd [2]
Cc1ccc(C(=O)Nc2ccc(CN3CCN(C)CC3)c(C(F)(F)F)c2)cc1C#Cc1cnc2[nH]ncc2c1	0.00115 s⁻¹	92.1 µM
COc1cc2ncnc(Nc3ccc(F)c(Cl)c3)c2cc1OCCCN1CCOCC1	0.0409 s⁻¹	293 µM
CCN1CCN(C(=O)Cc2ccc(Nc3ncc(F)c(Nc4ccc(C(=O)Nc5ccccc5Cl)cc4)n3)cc2)CC1	0.00547 s⁻¹	40.6 µM
C/C(=C\CNc1ncnc2c1ncn2[C@@H]1O[C@H](CO)[C@@H](O)[C@H]1O)CO	0.0133 s⁻¹	110 µM
C=C1[C@H](CO)[C@@H](O)C[C@@H]1n1cnc2c(=O)[nH]c(N)nc21	0.0258 s⁻¹	202 µM
CC(C)Nc1cc(-c2c[nH]c(C(=O)N[C@H](CO)c3cccc(Cl)c3)c2)c(Cl)cn1	0.0445 s⁻¹ and 0.0905 s⁻¹	44.7 µM and 93 µM
Nc1ncnc2c1nc(Br)n2[C@@H]1O[C@@H]2COP(=O)(O)O[C@H]2[C@H]1O	0.0104 s⁻¹	69.1 µM
COc1cc2c(Oc3ccc(NC(=O)C4(C(=O)Nc5ccc(F)cc5)CC4)cc3F)ccnc2cc1OCCCN1CCOCC1	0.0578 s⁻¹	3020 µM
CC(C)(C)C(=O)OCOP(=O)(COCCn1cnc2c(N)ncnc21)OCOC(=O)C(C)(C)C	0.0114 s⁻¹	106 µM
CCOc1cc(N2CCC(O)CC2)ccc1Nc1ncc2c(n1)N(C)c1ccccc1C(=O)N2C	0.0679 s⁻¹	8200 µM
CNc1nc(Nc2cnn([C@H]3CCN(C4COC4)C[C@@H]3F)c2Cl)ncc1C(F)(F)F	0.21 s⁻¹	11.7 µM
Cc1ccc(-c2csc3ncnc(SCCC(=O)O)c23)cc1	0.0503 s⁻¹	99.4 µM
COc1nccc(-c2c(-c3ccc(F)cc3)ncn2C2CCNCC2)n1	0.569 s⁻¹	30 µM
O=c1c(O)c(-c2ccc(O)c(O)c2)oc2cc(O)cc(O)c12	0.0106 s⁻¹	16.7 µM
COc1c(O)cc2oc(-c3ccc(O)cc3)cc(=O)c2c1O	0.476 s⁻¹	2320 µM
OC[C@H]1O[C@@H](n2cnc3c(NCCc4ccccc4)ncnc32)[C@H](O)[C@@H]1O	0.0125 s⁻¹	99.6 µM
CN(C)CCCn1cc(C2=C(c3c[nH]c4ccccc34)C(=O)NC2=O)c2ccccc21	0.37 s⁻¹	281 µM
